Measurements reported in the supplement of paper PMC12217912.
The list shows a part of the results. The full chains were built here from the parent and the listed change. Inactive controls read about 0.05.

B1: TEV protease; numbered along this chain (parent)
chain: MGESLFKGPRDYNPISSSICHLTNESDGHTTSLYGIGFGPFIITNKHLFRRNNGTLVVQSLHGVFKVKDTTTLQQHLVDGRDMIIIRMPKDFPPFPQKLKFREPQREERICLVTTNFQTKSMSSMVSDTSCTFPSGDGIFWKHWIQTKDGQCGSPLVSTRDGFIVGIHSASNFTNTNNYFTSVPKNFMELLTNQEAQQWVSGWRLNADSVLWGGHKVFMVKPEEPFQPVKEATQL

Variants of: B1
Assay: raw area under fraction-flipped curve 0-4 h after induction (AUC4h, not background-subtracted), DNA-recorder readout of cleavage of the substrate (dimensionless); higher = more cleavage of the substrate by the protease variant
Details: temperature: 34 °C; time window: 0-4 h after rhamnose induction
Description: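 In vivo DNA recorder in E. coli TOP10(DE3) ΔrhaA at 34 °C. Each TEVp single-site mutant (parent TEVp 0) is paired with a single-site variant of the 7-mer TEVs (canonical ENLYFQ|S). The substrate sits between flexible linkers in a Bxb1-sfGFP-TEVs-SsrA fusion, so cleavage stabilises Bxb1 and speeds flipping of a recombination array, read by NGS. The value is the raw area under the fraction-flipped curve over 0-4 h after rhamnose induction (AUC4h), with ≥20 reads per time point. It is not background-subtracted; inactive controls average about 0.047.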
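Also: Bxb1 expression induced with 0.2% (w/v) L-rhamnose at OD600 near 0.5, cultures sampled hourly, flipped fraction per protease–substrate barcode pair counted by paired-end Illumina sequencing.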

Row | Variant | area with substrate ENAYFQS | area with substrate ENCYFQS | area with substrate ENDYFQS | area with substrate ENEYFQS | area with substrate ENFYFQS | area with substrate ENGYFQS | area with substrate ENHYFQS | area with substrate ENIYFQS | area with substrate ENKYFQS | area with substrate ENNYFQS | area with substrate ENQYFQS | area with substrate ENRYFQS | area with substrate ENSYFQS | area with substrate ENTYFQS | area with substrate ENVYFQS | area with substrate ENWYFQS | area with substrate ENYYFQS | area with substrate ENPYFQS | area with substrate ENMYFQS
1 | S17W | 0.0537 | 0.0576 | 0.0509 | 0.0545 | 0.0629 | 0.0837 | 0.0643 | 0.104 | 0.0699 | 0.0691 | 0.0497 | 0.0591 | 0.0556 | 0.065 | 0.0915 | 0.0535 | 0.0599 | – | –
2 | L5E | 0.0647 | 0.0752 | 0.0599 | – | 0.0535 | 0.0603 | 0.0641 | 0.101 | 0.0609 | 0.0814 | 0.0462 | 0.0616 | 0.058 | 0.0599 | – | – | 0.0464 | 0.0579 | –
3 | P14I | 0.0575 | 0.0694 | – | 0.0626 | 0.0659 | 0.0589 | – | 0.0754 | 0.0669 | 0.0599 | 0.0596 | 0.0548 | 0.057 | 0.0605 | 0.0658 | 0.0594 | – | 0.0586 | 0.0493
4 | D11W | 0.0731 | 0.0868 | 0.0948 | 0.0551 | 0.0566 | 0.0687 | 0.0625 | 0.124 | 0.0854 | 0.0597 | 0.0612 | 0.0426 | 0.0603 | 0.0686 | 0.0738 | 0.0514 | – | 0.0477 | 0.0792
5 | S16N | 0.052 | 0.0638 | 0.0661 | 0.0658 | 0.115 | 0.0758 | – | 0.108 | 0.0584 | 0.057 | 0.0576 | 0.0477 | 0.0536 | 0.0612 | 0.0751 | 0.0679 | – | 0.0625 | –
6 | S16V | 0.0643 | 0.0508 | 0.0564 | 0.0626 | 0.0573 | 0.0602 | – | – | 0.041 | 0.0606 | 0.0636 | 0.0615 | 0.0751 | – | 0.0772 | 0.0181 | – | 0.0552 | 0.0726
7 | S16I | 0.0556 | 0.0914 | 0.0569 | – | 0.0577 | 0.0087 | 0.0667 | – | – | 0.0533 | 0.055 | – | 0.0617 | 0.0728 | 0.0962 | – | 0.0626 | 0.0594 | 0.0693
8 | S16L | 0.0523 | 0.0667 | – | 0.0601 | 0.0485 | 0.0557 | 0.0475 | – | – | 0.0488 | 0.0621 | 0.0479 | 0.0438 | – | 0.0736 | – | 0.0251 | 0.0559 | 0.0634
9 | S16Q | 0.0677 | 0.0719 | 0.0599 | 0.0627 | 0.0603 | 0.0648 | 0.0634 | 0.116 | 0.0698 | 0.0731 | 0.0613 | – | 0.0516 | 0.0591 | – | 0.0346 | 0.0611 | 0.0618 | 0.0848
10 | S16G | 0.0523 | 0.0739 | 0.0516 | 0.086 | – | – | – | – | – | 0.0672 | 0.0628 | – | 0.0272 | – | 0.0594 | – | 0.0644 | 0.0837 | –
11 | S16T | 0.063 | 0.0713 | 0.057 | 0.0418 | 0.0566 | 0.0627 | 0.0559 | 0.0885 | – | 0.0674 | 0.0541 | 0.0535 | 0.0597 | 0.0626 | 0.0673 | 0.0646 | 0.057 | 0.0879 | 0.07
12 | S16R | 0.0868 | 0.0679 | 0.0593 | 0.0658 | 0.0525 | 0.0589 | 0.0613 | 0.138 | – | 0.0601 | 0.0559 | – | 0.0644 | 0.0602 | 0.0785 | – | – | 0.0657 | 0.0902
13 | S16E | 0.0603 | 0.0571 | 0.0626 | 0.0624 | 0.0612 | 0.075 | 0.0363 | 0.102 | – | 0.0673 | 0.0707 | 0.0627 | 0.0651 | 0.0383 | 0.0549 | 0.0643 | 0.0577 | 0.0474 | 0.0834
14 | S16H | 0.0655 | 0.0718 | 0.0671 | 0.0624 | 0.0673 | 0.058 | 0.0713 | 0.0998 | – | 0.0517 | 0.0601 | 0.0681 | 0.0667 | 0.0619 | 0.0793 | – | 0.0516 | 0.057 | –
15 | S16C | 0.0434 | 0.0735 | 0.0666 | 0.0609 | 0.0634 | 0.0563 | 0.0578 | 0.106 | 0.0693 | 0.0693 | 0.0661 | 0.0578 | 0.0588 | 0.0405 | 0.0807 | 0.0627 | 0.0567 | 0.0708 | 0.0729
16 | S16M | 0.0608 | 0.0585 | 0.0592 | 0.0615 | 0.07 | 0.0567 | 0.0486 | 0.111 | 0.0563 | 0.061 | 0.0302 | 0.0655 | 0.0598 | 0.0645 | 0.0985 | 0.0679 | 0.0314 | – | 0.0883
17 | G28L | 0.0681 | 0.0529 | 0.0587 | 0.0634 | 0.0499 | – | 0.0795 | 0.0901 | 0.054 | 0.0585 | 0.0627 | 0.0615 | 0.0616 | 0.047 | 0.0648 | – | 0.0583 | 0.0523 | 0.0673
18 | G28T | 0.0511 | 0.0646 | 0.0598 | 0.0581 | – | 0.0655 | – | 0.0969 | 0.0644 | 0.0591 | 0.0588 | 0.0574 | – | 0.0614 | 0.0636 | – | 0.0602 | 0.0569 | 0.0663
19 | S18C | 0.0902 | 0.0683 | 0.0572 | – | 0.0629 | 0.0707 | 0.054 | 0.114 | – | 0.065 | 0.042 | 0.0703 | – | 0.067 | 0.0803 | – | 0.0384 | 0.0552 | 0.113
20 | S32A | 0.0724 | 0.0717 | 0.0453 | 0.051 | 0.0597 | – | 0.0672 | 0.111 | 0.0686 | 0.0624 | 0.0683 | – | 0.107 | 0.08 | 0.0682 | 0.0605 | 0.0518 | – | –
21 | E25K | 0.0664 | 0.0792 | – | 0.0563 | 0.0606 | 0.0509 | 0.0545 | 0.104 | 0.0644 | 0.0706 | 0.0613 | 0.0616 | 0.057 | 0.0581 | 0.0726 | 0.0445 | – | 0.0583 | 0.0655
22 | T31E | 0.0573 | 0.0062 | 0.0602 | 0.0618 | 0.0667 | 0.0719 | 0.0633 | 0.0805 | 0.0597 | 0.0573 | 0.0573 | 0.0656 | 0.0601 | 0.0851 | 0.0716 | 0.0363 | – | – | 0.0984
